# The campaign covered roughly 260,000 compounds. About 150 (0.058%) were called active. The shares of active, inactive and inconclusive entries below differ from those in the screen. The call rests on the fitted dose curve; in most records, active means well fitted inhibition curve with a large enough effect; inconclusive means small, poorly fitted or top-dose-only effect; inactive means no such curve, though single readings can be large or run the other way. Potencies of inconclusive entries are left out as doubtful fits.
# Molecular target: Pyruvate kinase PKM (Homo sapiens) (UniProt P14618)
# Sequence of UniProt P14618 (P14618 whole entry, looked up, canonical isoform): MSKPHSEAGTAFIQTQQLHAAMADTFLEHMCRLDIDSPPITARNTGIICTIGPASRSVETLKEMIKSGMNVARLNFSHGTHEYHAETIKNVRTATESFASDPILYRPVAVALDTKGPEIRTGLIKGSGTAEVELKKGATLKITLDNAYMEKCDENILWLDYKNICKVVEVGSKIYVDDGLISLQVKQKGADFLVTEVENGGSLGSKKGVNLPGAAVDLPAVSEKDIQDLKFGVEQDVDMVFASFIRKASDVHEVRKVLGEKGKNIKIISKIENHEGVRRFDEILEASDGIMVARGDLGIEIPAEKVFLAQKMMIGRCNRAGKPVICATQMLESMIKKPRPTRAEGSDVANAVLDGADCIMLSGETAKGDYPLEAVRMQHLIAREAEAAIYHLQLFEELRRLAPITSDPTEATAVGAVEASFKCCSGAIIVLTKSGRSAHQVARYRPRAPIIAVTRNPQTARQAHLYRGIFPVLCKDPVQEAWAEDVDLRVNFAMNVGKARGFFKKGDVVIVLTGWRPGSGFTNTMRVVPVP
# Assay: qHTS Assay for Inhibitors of Human Muscle isoform 2 Pyruvate Kinase; further: nearly all actives have a fitted effect of over 60% in size;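 on activity change, negative = inhibition: plate controls were uninhibited enzyme wells for no effect and no-enzyme wells for full effect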
# Conditions: purified PKM2, ATP generation, Kinase-Glo luminescence; series mostly up to 57.5 µM; activity change, negative = inhibition: at the top concentration
# In short: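 Enzyme run at intermediate activity with final 0.1 mM ADP, 0.5 mM PEP (50 mM imidazole pH7.2, 50 mM KCl, 7 mM MgCl2), incubated 1 h at r.t. ATP formed read by Kinase-Glo luminescence, normalized to no-enzyme (full inhibition) and uninhibited wells.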
# Potency means the concentration at half of the fitted maximal effect; tags describe the fitted curve by direction and shape.
SMILES,Potency,"activity change, negative = inhibition"
CCOc1ccc(NC(=O)Nc2cc(C)ccc2F)cc1,"inconclusive [falling, single point]",
O=C(Nc1scc(-c2ccccc2)c1C(=O)O)c1ccco1,"inconclusive [falling, partial curve]",
O=C1N=c2ccccc2=C1c1sc(=O)[nH]c1O,"inconclusive [falling, partial curve]",
CN1C(=O)CC(N2CCC(c3nc4ccccc4[nH]3)CC2)C1=O (stereo not drawn),"inconclusive [falling, full curve, poor fit]",
CCOc1cc(/C=N\NC(=O)Cn2nnc3ccccc32)ccc1O,"inconclusive [falling, single point]",
O=C(O)C(Cc1ccccc1)N1C(=O)CCC1=O (stereo not drawn),"inconclusive [falling, single point]",
Cc1coc2c(O)cc3c(c12)OC1(N2CCCCC2)C(=O)NCCCC31 (stereo not drawn),,inactive: 59.5%
O=C(N/N=C/c1ccc2ncccc2c1)c1ccco1,"inconclusive [falling, partial curve]",
NNc1nc2c(Cl)cccc2s1,"inconclusive [falling, single point]",
c1coc(C2=Nc3cccc4cccc(c34)N2)c1,"inconclusive [falling, single point]",
COc1ccc(/C=C/C2=NN(C)C(=O)CC2)cc1,"inconclusive [falling, partial curve]",
CC(NC(=S)NCCN1CCOCC1)C12CC3CC(CC(C3)C1)C2 (stereo not drawn),"inconclusive [falling, single point]",
COc1ccc(NC(=O)Nc2ccccc2C(N)=O)cc1,active: 25.1 µM,
O=C(c1ccccc1)c1cc(-c2ccccc2)on1,"inconclusive [falling, partial curve]",
Nc1ccc2nc(-c3ccccc3)sc2c1,"inconclusive [falling, single point]",
O=C(CN1CCSC1=NCc1ccccc1)c1ccc(Cl)cc1,,inactive: 36.5%
C[C@@H](CO)NC(=O)c1ccc2c3n(nc2c1)-c1ccccc1CO3,"inconclusive [falling, partial curve]",
O=C(Cn1ccc([N+](=O)[O-])n1)N1CCCCCC1,"inconclusive [falling, single point]",
CN(C(=O)COC(=O)c1ccc(-c2ccc(O)cc2)cc1)C1CCS(=O)(=O)C1 (stereo not drawn),"inconclusive [falling, single point]",
Cc1ccc(-n2nnc(-c3nccn3C)n2)cc1,active: 15.8 µM,
CCN1c2ccc(S(=O)(=O)N3CCOCC3)cc2N(Cc2ccc(OC)cc2)C1C (stereo not drawn),"inconclusive [falling, single point]",
Fc1ccc(-c2nc3ccncc3[nH]2)cc1,"inconclusive [falling, single point]",
Cc1nc(N=Nc2ccc(O)cc2)n[nH]1,active: 12.6 µM,
CC(C(=O)Nc1cccc([N+](=O)[O-])c1)N1CCN(C/C=C/c2ccccc2)CC1 (stereo not drawn),,inactive: -7.53%
CCOC(=O)C1CCCN(C/C=C/c2ccccc2[N+](=O)[O-])C1 (stereo not drawn),"inconclusive [falling, single point]",

SMILES,Potency,"activity change, negative = inhibition"
O=C1CN(c2cc(Cl)cc(Cl)c2)C(=O)CN1/N=C/c1cccnc1,"inconclusive [falling, single point]",
Cc1ccc(-n2nc3c(n2)/C(=N/O)CC/C3=N\O)cc1,"inconclusive [falling, partial curve]",
CCn1c(CNC(=O)c2ccccc2)nnc1SCC(=O)N1CCN(c2ccccc2)CC1,"inconclusive [falling, single point]",
O=C(Nc1ccccc1C(=O)N/N=C/c1ccco1)c1ccc(F)cc1,"inconclusive [falling, single point]",
NC(Cc1ccc2nonc2c1)C(=O)O (stereo not drawn),"inconclusive [falling, single point]",
O=c1oc2ccccc2cc1-c1nc2ccccc2o1,"inconclusive [falling, single point]",
Clc1ccc(-c2cc(-c3ccccn3)on2)c(Cl)c1,"inconclusive [falling, partial curve]",
CCOC(=O)Cc1csc(NC(=O)CSc2nnc(C(C)C)n2CC)n1,,inactive: 30.9%
CC(=O)c1ccc(OCC(C)C)c(CN2CCCCC2)c1,"inconclusive [falling, single point]",
O=C(Nc1ccc(C(=O)N2CCCC2)cc1)c1ccc2c(c1)OCO2,"inconclusive [falling, partial curve]",
O=C(O)c1cc(N=Nc2c(O)ccc3ccccc23)cc(C(=O)O)c1,"inconclusive [falling, partial curve]",
COc1ccc(/C=C/C(=O)c2cc3c(cc2N)OCO3)cc1,"inconclusive [falling, single point]",
Oc1ccc(-c2n[nH]c(=S)n2-c2ccc3c(c2)OCCO3)cc1,"inconclusive [falling, single point]",
CSc1ccccc1C(=O)Nc1ccc(C)cc1C,"inconclusive [falling, single point]",
O=C(Nc1nc(-c2ccccn2)cs1)C12CC3CC(CC(O)(C3)C1)C2,"inconclusive [falling, single point]",
Cc1cc2nc(C3CCN(C(=S)NCCCOC(C)C)CC3)[nH]c2cc1C,"inconclusive [falling, single point]",
COc1ccc(-n2nnnc2SCC(=O)Nc2ccc3c(c2)OCCO3)cc1OC,"inconclusive [falling, full curve, poor fit]",
CCOc1cc(C(=O)NCCN2C(=O)S/C(=C\c3cccnc3)C2=O)cc(OCC)c1OCC,,inactive: 64.5%
CCOc1ccc(/C=C/C2=NNC(=O)CC2)cc1,"inconclusive [falling, single point]",
CCC(=O)N1CCc2cc(Br)cc(S(=O)(=O)CCC(=O)NCCc3ccccc3)c21,"inconclusive [falling, partial curve]",
CC(C)(C)c1ccc(/C=N/n2cnnc2)cc1,"inconclusive [falling, single point]",
COc1ccc(C)cc1NC(=O)NCc1ccccn1,"inconclusive [falling, single point]",
CC(=O)Nc1cccn(Cc2c(Cl)cccc2Cl)c1=O,,inactive: 35.8%
O=C(Nc1nc2c(s1)CCCC2)c1cccs1,"inconclusive [falling, partial curve, poor fit]",
O=C(O)c1sccc1S(=O)(=O)N1CCN(c2ccc(C(F)(F)F)cn2)CC1,"inconclusive [falling, single point]",

SMILES,Potency,"activity change, negative = inhibition"
Cc1ccc(C(=O)Nc2nc3c(s2)CCCC3)o1,"inconclusive [falling, partial curve]",
NC(=O)Nn1c(CCC(=O)O)ccc1-c1ccc(F)cc1,,inactive: 34.4%
C=CCc1cccc2cc(C(=O)Nc3ccc(S(=O)(=O)Nc4nnc(CC)s4)cc3)c(=O)oc12,,inactive: 39%
O=[N+]([O-])/C(=C\Nc1ccccc1Cl)S(=O)(=O)c1ccccc1,"inconclusive [falling, partial curve]",
Cc1ccnc2nc(C(=O)Nc3ccc(N4CCOCC4)cc3)nn12,"inconclusive [falling, partial curve]",
CC(=O)c1c(C)nc(-c2cccc([N+](=O)[O-])c2)n1O,"inconclusive [falling, single point]",
O=C(Nc1ccccn1)c1onc2c1CCCC2,active: 14.1 µM,
N/C(=N\OC(=O)c1ccc([N+](=O)[O-])cc1)c1ccccn1,"inconclusive [falling, full curve, poor fit]",
COc1ccc(S(=O)(=O)N2CCN(C(=O)C3CC3)CC2)cc1,,inactive: 41.9%
COC(=O)C1=C(C)NC(=O)NC1c1ccsc1 (stereo not drawn),"inconclusive [falling, single point]",
NC(=O)c1nsc(C(=O)N(CC(=O)NCc2ccccc2)c2cccc(F)c2)c1N,"inconclusive [falling, partial curve]",
Cc1cnc(NC(=O)C2(c3ccccc3)CC2)s1,,inactive: 30.4%
O=C(c1ccco1)N1CCn2c1nc1ccccc12,"inconclusive [falling, single point]",
O=C(COC(=O)c1cccs1)c1ccc2c(c1)OCCO2,active: 28.2 µM,
CCCc1cc(C(=O)Nc2cccnc2)no1,"inconclusive [falling, partial curve]",
CCOC(=O)C1=C(CN2CCSCC2)NC(=O)NC1c1cccc([N+](=O)[O-])c1 (stereo not drawn),"inconclusive [falling, single point]",
CSc1ccc(/C=N\NC(=O)COc2ccc(Cl)cc2Br)cc1,,inactive: 21.9%
O=c1c2ccccc2cnn1Cc1n[nH]c(=S)n1-c1ccc(F)c(Cl)c1,"inconclusive [falling, single point]",
COC(=O)c1sccc1NC(=O)Nc1cccc(C)c1,"inconclusive [falling, partial curve]",
Cc1cnc(NC(=O)c2ccco2)s1,"inconclusive [falling, single point]",
CS(=O)(=O)N(CC(=O)Nc1ccc(S(=O)(=O)N2CCOCC2)cc1)c1ccccc1Br,,inactive: 32.3%
Oc1ccc(-c2nc(=S)[nH][nH]2)cc1,"inconclusive [falling, single point]",
COc1ccc(C(=O)NC(C)c2ccccc2)cc1Br (stereo not drawn),"inconclusive [falling, single point]",
